Experimental findings from US12220421B2, “Inhibitors of C. difficile spore germination” (THE BOARDS OF REGENTS OF THE NEVADA SYSTEM OF HIGHER …, priority 2021, dated 2025) are described below.

This assay concerns C. difficile hypervirulent strain R20291. The conditions noted are these: for Murine CDI prophylaxis at 50 mg/kg: 50 mg/kg daily oral gavage, 3 days, mice challenged with R20291 spores; for CDI signs in mice: hypervirulent C. difficile strain R20291. The text has this: To test for murine C. difficile infection (CDI) protection, published procedures were followed (Howerton et al. (2013) Journal of Infectious Diseases 207(10): 1498-1504; Phan et al. (2022) Antimicrobial Agents and Chemotherapy 66(1): e01435-01421). Briefly, antibiotic-treated female mice were challenged by oral gavage with spores from C. difficile hypervirulent strain R20291 (Chen et al. (2008) Gastroenterology 135(6): 1984-1992). At this point, animals were divided randomly into groups (Table 1). Starting on the day of infection and continuing for the next two days, animals in group C were given daily doses of 50 mg/kg of an individual NHBS analog by oral gavage. Animals in group B were given vancomycin. Animals in group A were given excipient (Howerton et al. (2013) Journal of Infectious Diseases 207(10): 1498-1504; Howerton et al. (2018) Antimicrobial Agents and Chemotherapy 62(10): e02251-17). For up to 5 days following challenge, animals were scored for signs of CDI, using a published rubric (Howerton et al. (2013) Journal of Infectious Diseases 207(10): 1498-1504). Moribund or severely distressed animals were euthanized.

Consider `C[C@H](CCc1ncc2ccccc2n1)[C@H]1CC[C@H]2[C@@H]3[C@H](O)C[C@@H]4C[C@H](O)CC[C@]4(C)[C@H]3C[C@H](O)[C@]12C` [Compound 29], for which the “Murine CDI prophylaxis at 50 mg/kg” value is “Complete protection” and the “CDI signs in mice” value is on record as “prevented all CDI signs”.

In the case of `C[C@H](CCc1nc2ccccc2s1)[C@H]1CC[C@H]2[C@@H]3[C@H](O)C[C@@H]4C[C@H](O)CC[C@]4(C)[C@H]3C[C@H](O)[C@]12C` [Compound 48], the “Murine CDI prophylaxis at 50 mg/kg” value is given as “Partial protection” and the “CDI signs in mice” value is given as “significantly reduced sign severity”.
